# Measurements: the antibiotic and cytotoxicity screens of Wong et al. (2023)
# The other results are listed elsewhere or left out.
# System: HepG2
# Assay: cytotoxicity call (relative viability < 0.9)
# Settings: 10 µM
row,Compound,cytotoxicity call
1,C[C@H]1CN([C@@H](C)CO)C(=O)Cc2cc(NS(=O)(=O)c3ccc(F)cc3)ccc2O[C@@H]1CN(C)CC1CC1,inactive
2,COc1ccc(NC(=O)N(C)C[C@H]2Oc3c(NC(=O)C4CCOCC4)cccc3C(=O)N([C@@H](C)CO)C[C@@H]2C)cc1,inactive
3,C[C@H](CO)N1C[C@H](C)[C@@H](CN(C)S(=O)(=O)c2ccccc2)OCCCC[C@H](C)Oc2ccc(NC(=O)Nc3ccc(F)cc3)cc2C1=O,inactive
4,C[C@@H]1CN([C@H](C)CO)C(=O)Cc2cc(NS(=O)(=O)c3ccccc3)ccc2O[C@@H]1CN(C)S(=O)(=O)c1ccc(F)cc1,inactive
5,C[C@@H]1CCCCO[C@@H](CN(C)Cc2ccc(C(F)(F)F)cc2)[C@@H](C)CN([C@@H](C)CO)C(=O)c2cc(NC(=O)Cc3ccccc3)ccc2O1,active
6,CC(C)NC(=O)Nc1ccc2c(c1)C(=O)N([C@H](C)CO)C[C@H](C)[C@@H](CN(C)S(=O)(=O)c1ccc(Cl)cc1)O2,inactive
7,C[C@H](CO)N1C[C@H](C)[C@H](CN(C)C(=O)c2cc(Cl)cc(Cl)c2)OCc2ccccc2-c2ccccc2C1=O,inactive
8,C[C@H](CO)N1C[C@H](C)[C@H](CN(C)C(=O)Nc2ccc(F)cc2)Oc2ccc(NC(=O)Nc3cccc4ccccc34)cc2C1=O,inactive
9,NCC[C@H]1CC[C@@H](NC(=O)C2CCCCC2)[C@@H](CO)O1,inactive
10,Cn1cnc(S(=O)(=O)N2C[C@@H](O)COC[C@H]3O[C@H](CC(=O)NCc4cc(F)cc(F)c4)CC[C@@H]32)c1,inactive
11,COCCn1cc2c(n1)[C@H](CNC(=O)CS(C)(=O)=O)OCC2,inactive
12,Cc1noc(C)c1NC(=O)Nc1ccc2c(c1)C(=O)N([C@@H](C)CO)C[C@H](C)[C@H](CN(C)CC1CCCCC1)OCCCC[C@H](C)O2,inactive
13,Cn1cc(-c2[nH]c3cc(NC(=O)[C@H](N)C4CCCCC4)cc4c3c2C=NNC4=O)cn1,active
14,COc1cccc(S(=O)(=O)N(C)C[C@@H]2Oc3ncc(-c4ccc(F)cc4)cc3C(=O)N([C@H](C)CO)C[C@@H]2C)c1,inactive
15,C[C@H](CO)N1C[C@H](C)[C@@H](CN(C)S(=O)(=O)c2cccs2)Oc2c(NS(=O)(=O)c3ccccc3)cccc2C1=O,inactive
16,NCC[C@@H]1CC[C@@H](NC(=O)C2CCC2)[C@H](CO)O1,inactive
17,C[C@H]1CCCCO[C@@H](CN(C)C(=O)Cc2ccccc2)[C@@H](C)CN([C@@H](C)CO)C(=O)c2cc(NS(=O)(=O)c3ccc(Cl)cc3)ccc2O1,inactive
18,Cc1ccc(S(=O)(=O)Nc2ccc3c(c2)C(=O)N([C@H](C)CO)C[C@@H](C)[C@H](CN(C)C(=O)Nc2cccc4ccccc24)OCCCC[C@H](C)O3)cc1,active
19,O=C(C[C@H]1CC[C@H]2[C@@H](COC[C@H](O)CN2C(=O)c2ccncc2)O1)NC1CCC1,inactive
